# Where “and” joins values, the source holds several entries; their conditions need not be identical. Equal entries are not always repeated. Whole data set: some 5,300 compounds, median “PER2::LUC luminescence relative to vehicle control” near 0.96, cut for the highest 2% near 1.3. The list shows a part of the results.
# System: mPer2Luc MEF
# Assay: PER2::LUC luminescence relative to vehicle control (fold of vehicle); higher = higher PER2::LUC reporter signal
# Details: 10 µM
# In short: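 The reported values are PER2::LUC luminescence as fold of vehicle control in mouse embryonic fibroblasts carrying the mPer2Luc reporter. Cells were seeded at ~3000 per well in 384-well plates in DMEM with 10% FBS at 37 °C and 5% CO2, and compounds were added at 10 μM 48 h later. ONE-Glo luminescence was read 24 h and 30 h after treatment.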
SMILES,PER2::LUC luminescence (time after treatment 24 h),PER2::LUC luminescence (time after treatment 30 h)
O=C(Nc1cccc2c(=O)cc(-c3nnn[nH]3)oc12)c1ccc(OCCCCc2ccccc2)cc1,0.99,1.04
CCO[C@H]1CN(C2CCC(O)(c3ccc4c(c3)OCO4)CC2)C[C@@H]1NC(=O)CNC(=O)c1cccc(C(F)(F)F)c1 (stereo partly drawn),0.97,0.88
COc1ccccc1C(=O)Nc1cc2c(cc1N1CCCCC1)n(C)c(=O)n2C,0.765,0.829
CC(C)(C)NC[C@H](O)COc1nsnc1N1CCOCC1,0.98 and 0.912 and 0.922,0.883 and 0.832 and 0.805
C[C@]12CCC(=O)C=C1CC[C@@H]1[C@@H]2[C@@H](O)C[C@@]2(C)[C@H]1CC[C@]2(O)C(=O)COC(=O)CCC(=O)O,0.717,1.02
COc1cccc(NC(=O)/C=C/c2ccc(Cl)cc2)c1,1.39,1
Cc1cc(OCCN2CCOCC2)nn1-c1ccc2ccccc2c1,1.02,0.944
Oc1ccccc1O,0.845,0.928
COc1cc(OC)c2c(=O)[nH]c(-c3cc(C)c(OCCO)c(C)c3)nc2c1,0.837,0.884
CO/N=C(\C(=O)N[C@@H]1C(=O)N2C(C(=O)O)=C(CSc3nc(=O)c(O)nn3C)CS[C@H]12)c1csc(N)n1,0.972 and 1.09,0.945 and 1.1
C[C@@]12CCc3occc3[C@H]1CC[C@@]13C[C@@H](CC[C@H]12)[C@@](O)(CO)C3,1.06,0.733
NCCOc1cc(C(=O)Nc2cc(OCCN)c3ccccc3n2)nc(C(=O)Nc2cc(OCCN)c3ccccc3n2)c1,0.954,0.971
O=C(O)CS,0.991,0.939
CCCCOC(=O)NS(=O)(=O)c1sc(CC(C)C)cc1-c1ccc(Cn2c(CC)nc3c(C)cc(C)nc32)cc1,0.943,0.692
O=C(c1cccc(Cl)c1F)N1CCN(Cc2cccc(Nc3nccs3)n2)CC1,0.793,0.764
COc1ccc(CCN(C)CCCC(C#N)(c2cc(OC)c(OC)c(OC)c2)C(C)C)cc1OC (racemic),0.987,0.783
CC(C)[C@H]1C(=O)N[C@@H](CCCNC(=N)N)C(=O)NCC(=O)N[C@@H](CC(=O)O)C(=O)N[C@H](Cc2ccccc2)C(=O)N1C,0.772,0.692

SMILES,PER2::LUC luminescence (time after treatment 24 h),PER2::LUC luminescence (time after treatment 30 h)
FC(F)(F)c1ccccc1-n1ccnc1,0.975,0.907
NCC(O)c1ccc(O)c(O)c1 (racemic),1.04,1.12
COc1cc(-c2coc3cc(O)c(OC)c(O)c3c2=O)cc(O)c1OC,1.37,1.39
CCOC(=O)OC(C)OC(=O)[C@@H]1N2C(=O)[C@@H](NC(=O)[C@H](N)c3ccccc3)[C@H]2SC1(C)C (stereo partly drawn),1.02,0.972
NC(CCCP(=O)(O)O)C(=O)O (racemic),1.03 and 0.907,1.02 and 0.974
CN1C(=O)C[C@H](C(=O)O)[C@H]1c1cccnc1,1.08,1.07
CCOC(=O)[C@H](CCc1ccccc1)N[C@H]1CCc2ccccc2N(CC(=O)O)C1=O,0.42,0.758
O=C(NC[C@@H]1CN(c2ccc(N3CCOCC3=O)cc2)C(=O)O1)c1ccc(Cl)s1,0.948,0.975
O=C(Nc1c[nH]nc1-c1nc2ccc(CN3CCOCC3)cc2[nH]1)NC1CC1,0.571,0.345
Cn1cc(-c2ccc(F)c(C(F)(F)F)c2)nc1C1CCN(c2ncnc3[nH]ncc23)CC1,0.925,0.975
CN(Cc1ccccc1)c1ccc2cc(C(=O)O)c(=O)oc2c1,1.06,0.948
CCNC(=O)N1CCN(CCCC(c2ccc(F)cc2)c2ccc(F)cc2)CC1,0.862 and 0.747,0.758 and 0.661
Fc1ccc(C(OCCCc2cnc[nH]2)c2ccc(F)cc2)cc1,0.983,0.796
COC1=C(OC)C(=O)C(CCCCCCCCCCO)=C(C)C1=O,1.04,0.777
C=CCN1CCc2cc(O)c(O)cc2C(c2ccccc2)C1 (racemic),1.04,1.07
O=C1CCC(c2ccc(-n3ccnc3)cc2)=NN1,0.982,0.963
COc1ccc(C(OCCN2CCC[C@H](C(=O)O)C2)(c2ccc(OC)cc2)c2ccc(OC)cc2)cc1,0.855,1.04

# Reference: the supplement of paper PMC9334596
